Some of the results follow.

The test concerns the target T1, MBP-FoxP1dN (Mus musculus, UniProt P58462 326-579).
T1 sequence: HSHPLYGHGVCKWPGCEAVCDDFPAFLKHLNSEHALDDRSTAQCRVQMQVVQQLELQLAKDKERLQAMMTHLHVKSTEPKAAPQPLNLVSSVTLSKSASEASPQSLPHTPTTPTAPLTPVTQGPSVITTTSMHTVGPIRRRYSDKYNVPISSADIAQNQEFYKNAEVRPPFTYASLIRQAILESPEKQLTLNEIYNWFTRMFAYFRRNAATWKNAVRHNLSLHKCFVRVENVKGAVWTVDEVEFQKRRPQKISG
In words: PD-seq (MBP pull-down with sequencing); 20 mM Tris-HCl pH 7.5, 100 mM NaCl, 1.5 mM MgCl2, 0.4 uM protein, 0.1 uM dsDNA library, 30 min, room temperature, amylose pull-down; high values mean tight binding. Conditions: protein: recombinant; tags: His6-MBP; chain copies: 2; dsDNA, one strand shown. A digest of the protocol:
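Amylose resin was used to capture complexes formed during 30 min at room temperature in Tris pH 7.5 buffer with NaCl and MgCl2 between 0.4 µM His6-MBP-tagged mouse FoxP3 or FoxP1 fragment lacking the N-terminus, expressed in E. coli, and 0.1 µM Klenow-filled double-stranded degenerate DNA library. After three washes, the DNA was released with proteinase K, barcoded by PCR and sequenced on Illumina. Binding is pooled-replicate reads-per-million enrichment, pull-down over input.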
As to “GATGATTGTTCTCCCAGCTGATGAATTCTCGATGTCGAGTAAACAAATTTTCCTAATCTTTCTGTTCAAGCGCCATCTAC”, the binding signal is 0.963 RPM ratio (pull-down/input). Turning to “GATGATTGTTCTCCCAGCTGATGAATTCCTACCATCGAGTAAACAAATTTTCCTAATCTTTCTGTTCAAGCGCCATCTAC”, the binding signal was 0.912 RPM ratio (pull-down/input). As to “GATGATTGTTCTCCCAGCTGATGAATTTCAGCGTTCGAGTAAACAAATTTTCCTAATCTTTCTGTTCAAGCGCCATCTAC”, the binding signal was 0.898 RPM ratio (pull-down/input). The value for “GATGATTGTTCTCCCAGCTGATGAATTTCGGGAATCGAGTAAACAAATTTTCCTAATCTTTCTGTTCAAGCGCCATCTAC” was 0.902 RPM ratio (pull-down/input); that for “GATGATTGTTCTCCCAGCTGATGAATTTGCGTCTTCGAGTAAACAAATTTTCCTAATCTTTCTGTTCAAGCGCCATCTAC” was 1.1 RPM ratio (pull-down/input). Then “GATGATTGTTCTCCCAGCTGATGAATTGGTCACGTCGAGTAAACAAATTTTCCTAATCTTTCTGTTCAAGCGCCATCTAC”, with 0.919 RPM ratio (pull-down/input); and “GATGATTGTTCTCCCAGCTGATGAATTCTCTGTCTCGAGTAAACAAATTTTCCTAATCTTTCTGTTCAAGCGCCATCTAC”, with 0.82 RPM ratio (pull-down/input); and “GATGATTGTTCTCCCAGCTGATGAATTATCTGTGTCGAGTAAACAAATTTTCCTAATCTTTCTGTTCAAGCGCCATCTAC”, with 1.03 RPM ratio (pull-down/input). Then “GATGATTGTTCTCCCAGCTGATGAATTAGCCGACTCGAGTAAACAAATTTTCCTAATCTTTCTGTTCAAGCGCCATCTAC”, with 0.775 RPM ratio (pull-down/input).

“GATGATTGTTCTCCCAGCTGATGAATTTACTGGTTCGAGTAAACAAATTTTCCTAATCTTTCTGTTCAAGCGCCATCTAC”: the binding signal was 1.15 RPM ratio (pull-down/input). On to “GATGATTGTTCTCCCAGCTGATGAATTAACCCTTTCGAGTAAACAAATTTTCCTAATCTTTCTGTTCAAGCGCCATCTAC”, for which the binding signal was 0.869 RPM ratio (pull-down/input). Then “GATGATTGTTCTCCCAGCTGATGAATTATGTTCTTCGAGTAAACAAATTTTCCTAATCTTTCTGTTCAAGCGCCATCTAC”, with 1.15 RPM ratio (pull-down/input); and “GATGATTGTTCTCCCAGCTGATGAATTGTCATCTTCGAGTAAACAAATTTTCCTAATCTTTCTGTTCAAGCGCCATCTAC”, with 1.09 RPM ratio (pull-down/input); and “GATGATTGTTCTCCCAGCTGATGAATTGGGAATGTCGAGTAAACAAATTTTCCTAATCTTTCTGTTCAAGCGCCATCTAC”, with 0.87 RPM ratio (pull-down/input). The value for “GATGATTGTTCTCCCAGCTGATGAATTGGTCTCTTCGAGTAAACAAATTTTCCTAATCTTTCTGTTCAAGCGCCATCTAC” was 0.927 RPM ratio (pull-down/input); that for “GATGATTGTTCTCCCAGCTGATGAATTGAGGGTCTCGAGTAAACAAATTTTCCTAATCTTTCTGTTCAAGCGCCATCTAC” was 0.782 RPM ratio (pull-down/input); that for “GATGATTGTTCTCCCAGCTGATGAATTGTGAGGTTCGAGTAAACAAATTTTCCTAATCTTTCTGTTCAAGCGCCATCTAC” was 0.924 RPM ratio (pull-down/input). Then “GATGATTGTTCTCCCAGCTGATGAATTAAATGGGTCGAGTAAACAAATTTTCCTAATCTTTCTGTTCAAGCGCCATCTAC”, with 0.879 RPM ratio (pull-down/input); and “GATGATTGTTCTCCCAGCTGATGAATTTTTAACATCGAGTAAACAAATTTTCCTAATCTTTCTGTTCAAGCGCCATCTAC”, with 1.19 RPM ratio (pull-down/input).

On to “GATGATTGTTCTCCCAGCTGATGAATTAGATCAGTCGAGTAAACAAATTTTCCTAATCTTTCTGTTCAAGCGCCATCTAC”, for which the binding signal was 0.933 RPM ratio (pull-down/input). In the case of “GATGATTGTTCTCCCAGCTGATGAATTCCTCTTCTCGAGTAAACAAATTTTCCTAATCTTTCTGTTCAAGCGCCATCTAC”, the binding signal is 0.796 RPM ratio (pull-down/input). As to “GATGATTGTTCTCCCAGCTGATGAATTCTGGTGGTCGAGTAAACAAATTTTCCTAATCTTTCTGTTCAAGCGCCATCTAC”, the binding signal is 0.809 RPM ratio (pull-down/input). As for “GATGATTGTTCTCCCAGCTGATGAATTACACAAGTCGAGTAAACAAATTTTCCTAATCTTTCTGTTCAAGCGCCATCTAC”, the binding signal is 1.37 RPM ratio (pull-down/input). The value for “GATGATTGTTCTCCCAGCTGATGAATTCATAGTATCGAGTAAACAAATTTTCCTAATCTTTCTGTTCAAGCGCCATCTAC” was 1.14 RPM ratio (pull-down/input); that for “GATGATTGTTCTCCCAGCTGATGAATTGGAACGTTCGAGTAAACAAATTTTCCTAATCTTTCTGTTCAAGCGCCATCTAC” was 0.904 RPM ratio (pull-down/input).

Consider “GATGATTGTTCTCCCAGCTGATGAATTGAACTACTCGAGTAAACAAATTTTCCTAATCTTTCTGTTCAAGCGCCATCTAC”, for which the binding signal is 0.87 RPM ratio (pull-down/input). Then “GATGATTGTTCTCCCAGCTGATGAATTGGTCATTTCGAGTAAACAAATTTTCCTAATCTTTCTGTTCAAGCGCCATCTAC”, with 0.96 RPM ratio (pull-down/input). The value for “GATGATTGTTCTCCCAGCTGATGAATTGATTGTTTCGAGTAAACAAATTTTCCTAATCTTTCTGTTCAAGCGCCATCTAC” was 1.61 RPM ratio (pull-down/input); that for “GATGATTGTTCTCCCAGCTGATGAATTGCGTACATCGAGTAAACAAATTTTCCTAATCTTTCTGTTCAAGCGCCATCTAC” was 1.24 RPM ratio (pull-down/input). On to “GATGATTGTTCTCCCAGCTGATGAATTATTAACTTCGAGTAAACAAATTTTCCTAATCTTTCTGTTCAAGCGCCATCTAC”, for which the binding signal was 1.17 RPM ratio (pull-down/input). The value for “GATGATTGTTCTCCCAGCTGATGAATTACGTGATTCGAGTAAACAAATTTTCCTAATCTTTCTGTTCAAGCGCCATCTAC” was 1.02 RPM ratio (pull-down/input).
